Data published in patent US20250002557A1.
The source holds more than one record for some entries. The other results are left out here. There may be further records. Values that stand side by side appear to be repeats (runs, samples, wells or individuals).

Tests used:
VEGF-A165 = VEGF-A165 (UniProt P15692); assay: ELISA, coated VEGF-A 165, anti-human Fc-HRP
VEGF-A 121 [1] = target: VEGF-A 121 (UniProt P15692); assay: ELISA, coated VEGF-A 121, anti-human Fc-HRP
VEGF-A 121 [2] = target: VEGF-A 121 (UniProt P15692); assay: blocking ELISA, VEGF-A 121-His to coated VEGFR2-Fc

## Eylea (Fc fusion)
VEGF-A165
  EC50: 0.0174 µg/mL and 0.174 nM [lines of one column]
VEGF-A 121 [1]
  EC50: 0.0719 µg/mL and 0.719 nM [lines of one column]
VEGF-A 121 [2]
  EC50: 0.955 µg/mL and 9.55 nM [lines of one column]
